Data from the supplement of paper PMC4723716.
± gives the uncertainty stated by the source. The full ranking holds about 9,900 compounds; the median of “viability index relative to DMSO control” is about 1, and the lowest 2% start at about 0.85. The list shows a part of the results.

System: Plasmodium falciparum NF54 stage V gametocytes
Assay: viability index relative to DMSO control (fraction); higher = less gametocyte killing
Settings: 2.5 µM, library set: Broad Institute DOS, incubation time: 72 h
How it was run: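 Viability index is the count of red-stained particles in a well divided by the plate mean of solvent-only wells. Particles of 20–70 µm2 were counted in one imaged field per well after one to two hours with 3 µl of 2.5 µM MitoTracker Red CMXRos and 0.13% saponin. Before staining, P. falciparum NF54 stage V gametocytes in serum-free medium (0.75% gametocytemia, 1.25% hematocrit, 10 µl, 1,536-well plates) were kept with compound at 2.5 µM for 72 hr at 37°C under low oxygen.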

In order of rising viability index:
1. O=C(NC[C@@H]1[C@H](c2ccccc2)[C@H](CO)N1Cc1ccccn1)C1CCCC1  0.684 ± 0.14
2. COc1ccc(S(=O)(=O)Nc2ccc3c(c2)C(=O)N([C@@H](C)CO)C[C@@H](C)[C@@H](CN(C)S(=O)(=O)c2ccc(Cl)cc2)OCCCC[C@@H](C)O3)cc1  0.77 ± 0.046
3. COc1ccccc1CN1CC[C@@H]2[C@H]1c1cc(C3=CCCCC3)ccc1N[C@@H]2CO  0.8126 ± 0.0046
4. CN1c2ccc(C3=CCCCC3)cc2[C@@H]2[C@@H](CCN2C(=O)c2ccc3c(c2)OCO3)[C@@H]1CO  0.868 ± 0.015
5. COCC(=O)N1C[C@@]2(C1)CN(Cc1cccc(F)c1)[C@@H](CO)c1c2c2ccc(OC)cc2n1C  0.899 ± 0.095
6. COc1ccc2c3c([nH]c2c1)[C@H](CO)N(Cc1cc(OC)cc(OC)c1)C[C@]31CN(C1)S(=O)(=O)c1cccc(F)c1  0.9388 ± 0.0048
7. C[C@H]1CN([C@@H](C)CO)C(=O)c2cc(N(C)C)ccc2O[C@@H]1CN(C)Cc1ccc(Oc2ccccc2)cc1  0.94 ± 0.021
8. C[C@@H]1CN([C@@H](C)CO)C(=O)CCCn2cc(nn2)CO[C@H]1CN(C)C(=O)Nc1cccc2ccccc12  0.942 ± 0.036
9. C[C@@H]1CCCCO[C@H](CN(C)S(=O)(=O)c2ccccc2)[C@H](C)CN([C@@H](C)CO)C(=O)c2cc(NC(=O)Nc3ccc4c(c3)OCO4)ccc2O1  0.948 ± 0.031
10. NCC[C@@H]1CC[C@@H](NC(=O)NC2CCCCC2)[C@@H](CO)O1  0.951 ± 0.023
11. Cc1noc(C)c1NC(=O)N1C[C@H](O)COC[C@@H]2O[C@@H](CC(=O)N[C@H]3CCN(Cc4ccccc4)C3)CC[C@H]21  0.96 ± 0.013
12. CN(C)C(=O)C[C@H]1C[C@H]2c3cc(NC(=O)c4cccnc4)ccc3O[C@H]2[C@H](CO)O1  0.962 ± 0.025
13. C[C@@H]1CN([C@@H](C)CO)C(=O)c2cccc(NC(=O)C3CCOCC3)c2O[C@H]1CN(C)C(=O)Nc1cccc2ccccc12  0.966 ± 0.063
14. CCCNC(=O)N1C[C@@]2(C1)CN([C@@H](CO)c1[nH]c3cc(OC)ccc3c21)C(=O)c1ccccc1  0.967 ± 0.11
15. CCCNC(=O)N[C@@H]1C=C[C@@H](CC(=O)N2CCN(C)CC2)O[C@H]1CO  0.968 ± 0.059
16. COc1cccc(C#Cc2ccc3c(c2)O[C@H](CN(C)C(=O)CN2CCOCC2)[C@@H](C)CN([C@@H](C)CO)S3(=O)=O)c1  0.969 ± 0.052
17. COc1ccc(C[C@@H]2CCn3nncc3COCCCNC2=O)cc1  0.969 ± 0.01
18. C[C@H](CO)N1C[C@H](C)[C@H](CN(C)C(=O)Nc2cccc3ccccc23)OCc2cn(nn2)CCCC1=O  0.975 ± 0.064
19. CNC[C@@H]1Oc2c(N)cccc2C(=O)N([C@@H](C)CO)C[C@H]1C  0.975 ± 0.17
20. COc1cccc(-c2ccc([C@@H]3[C@@H](CO)N4C(=O)CN(C(=O)c5cccnc5)C[C@@H]34)cc2)c1  0.983 ± 0.049
21. CCCNC(=O)C[C@H]1CC[C@H]2[C@@H](COC[C@H](O)CN2Cc2ccncc2)O1  0.985 ± 0.09
22. CN(C)C(=O)C[C@@H]1CC[C@@H]2[C@H](COC[C@H](O)CN2C(=O)C2CCOCC2)O1  0.9897 ± 0.0065
23. C/C=C/c1ccc([C@@H]2[C@H](CO)N(C(C)=O)[C@H]2CNC(=O)c2ccccc2)cc1  0.992 ± 0.013
24. O=C(C[C@@H]1CC[C@H]2[C@@H](COC[C@H](O)CN2Cc2nccs2)O1)NCc1ccccc1Cl  0.994 ± 0.024
25. CCCNC(=O)N1C[C@]2(CCN(CC2)S(=O)(=O)c2ccccc2)c2c([C@H]1CO)n(C)c1cc(OC)ccc21  0.9945 ± 0.0077
26. CCC(=O)N1C[C@]2(CCN(CC2)C(=O)Nc2ccccc2F)c2c([nH]c3cc(OC)ccc23)[C@H]1CO  0.9987 ± 0.0051
27. CCCC#Cc1ccc([C@H]2[C@H](CO)N3C(=O)CN(C(=O)c4cccnc4)C[C@@H]23)cc1  1 ± 0.015
28. O=C(CC(F)(F)F)N1C[C@H]2[C@@H](c3ccccc31)[C@H](CO)N2Cc1cccnc1  1 ± 0.031
29. O=C(C[C@H]1CC[C@@H]2[C@H](COC[C@H](O)CN2Cc2ccc3c(c2)OCO3)O1)N1CCCCC1  1.01 ± 0.072
30. CCCC(=O)Nc1ccc2c(c1)C(=O)N(C)C[C@H](OC)[C@H](C)CN(Cc1ccc(F)cc1)[C@H](C)CO2  1.01 ± 0.017
31. C[C@@H]1CN([C@H](C)CO)C(=O)CCCn2nncc2CO[C@H]1CN(C)Cc1ccc2c(c1)OCCN2C  1.02 ± 0.031
32. C[C@H]1CN([C@@H](C)CO)C(=O)Cc2cc(NC(=O)CCN3CCOCC3)ccc2O[C@@H]1CN(C)Cc1ccc(C(=O)O)cc1  1.02 ± 0.17
33. COc1cccc(S(=O)(=O)N2C[C@@H](O)COC[C@H]3O[C@@H](CC(=O)N4CCN(c5ccccc5)CC4)CC[C@@H]32)c1  1.02 ± 0.021
34. CO[C@@H]1CN(C)C(=O)c2cc(NC(=O)c3cccc(F)c3)ccc2OC[C@H](C)N(C)C[C@H]1C  1.026 ± 0.01
35. CS(=O)(=O)Nc1ccc2c(c1)[C@H]1C[C@H](CC(=O)NCCc3ccccc3)O[C@H](CO)[C@H]1O2  1.03 ± 0.08
36. C[C@H](NC(=O)C[C@H]1CC[C@@H]2[C@H](COc3ccc(NS(=O)(=O)c4ccc(Cl)cc4)cc3C(=O)N2C)O1)c1ccccc1  1.03 ± 0.061
37. COc1ccc(CN(C)C[C@H]2OCCCC[C@H](C)Oc3ccc(NC(=O)C4CCCCC4)cc3C(=O)N([C@H](C)CO)C[C@H]2C)cc1  1.03 ± 0.022
38. O=C(C[C@H]1C=C[C@H](NC(=O)Nc2ccc3c(c2)OCO3)[C@@H](CO)O1)NCCCN1CCOCC1  1.03 ± 0.07
39. CCN1C[C@@H](C)[C@H](OC)CN(C)C(=O)c2cc(NC(=O)c3ccno3)ccc2OC[C@H]1C  1.04 ± 0.017
40. COCC(=O)N1[C@H](CO)[C@@H](c2ccccc2C2=CCCC2)[C@@H]1C#N  1.04 ± 0.016
41. C[C@H](CO)N1C[C@H](C)[C@H](CN(C)Cc2ccc3c(c2)OCCN3C)OCc2ccccc2-c2ccccc2C1=O  1.045 ± 0.0014
42. CO[C@@H]1CN(C)C(=O)c2ccc(NC(=O)c3nc4ccccc4s3)cc2OC[C@@H](C)N(Cc2cccnc2)C[C@H]1C  1.05 ± 0.044
43. Cc1ccccc1-c1ccc([C@H]2[C@@H]3CN(Cc4cncnc4)C[C@H]2N3)cc1  1.05 ± 0.065
44. CCC(=O)Nc1ccc2c(c1)C(=O)N(C)C[C@H](OC)[C@H](C)CN(C(=O)Cc1cccnc1)[C@@H](C)CO2  1.05 ± 0.093
45. COc1ccc2c3c([nH]c2c1)[C@@H](CO)N(C[C@]31CN(C1)C(=O)Nc1cccc(F)c1)C(=O)c1cccnc1  1.05 ± 0.027
46. O=C(C[C@@H]1CC[C@@H]2[C@H](COC[C@H](O)CN2Cc2cccc(Cl)c2)O1)NCc1cccc(F)c1  1.06 ± 0.013
47. N#Cc1ccc(-c2ccc([C@H]3[C@@H](CO)N4C(=O)CNC[C@H]34)cc2)cc1  1.063 ± 0.0052
48. N#C[C@@H]1N[C@@H](CO)[C@@H]1c1ccc(-c2cccc(F)c2)cc1  1.06 ± 0.039
49. COCC(=O)Nc1ccc2c(c1)[C@H]1C[C@H](CC(=O)N3CCOCC3)O[C@@H](CO)[C@H]1O2  1.06 ± 0.036
50. COC(=O)C[C@@H]1CC[C@H]2[C@H](COc3ccc(NC(=O)c4ccc(C(F)(F)F)cc4)cc3C(=O)N2C)O1  1.06 ± 0.12
51. COc1ccccc1-c1ccc([C@H]2[C@@H](CO)N(CC3CC3)C23CN(S(C)(=O)=O)C3)cc1  1.056 ± 0.0046
52. C/C=C/c1ccc([C@@H]2[C@@H](CN(CC)C(=O)CN(C)C)N(C(C)=O)[C@H]2CO)cc1  1.07 ± 0.029
53. C[C@@H]1CN([C@H](C)CO)C(=O)Cc2cc(NS(=O)(=O)c3cccs3)ccc2O[C@H]1CN(C)CC1CCCCC1  1.07 ± 0.028
54. CCCNC(=O)N1CC2(C1)[C@H](c1ccccc1)[C@H](CO)N2C(=O)CC1CC1  1.07 ± 0.043
55. N#C[C@@H]1[C@H](c2ccc(-c3cncnc3)cc2)[C@H](CO)N1C(=O)Cc1ccccc1  1.07 ± 0.035
56. COc1cccc(NC(=O)N[C@H]2C=C[C@@H](CC(=O)NCc3ccncn3)O[C@H]2CO)c1  1.07 ± 0.014
57. C[C@@H]1CCCCO[C@H](CN(C)S(=O)(=O)c2ccc(F)cc2)[C@@H](C)CN([C@H](C)CO)C(=O)c2cc(NC(=O)CCCCCC(=O)Nc3ccccc3N)ccc2O1  1.08 ± 0.027
58. COc1cccc(C(=O)Nc2ccc3c(c2)OC[C@@H](C)N(CCc2ccccc2)C[C@H](C)[C@@H](OC)CN(C)C3=O)c1  1.078 ± 0.0053
59. CCNC(=O)C[C@@H]1CC[C@H]2[C@@H](COC[C@H](O)CN2C(=O)C2CCCC2)O1  1.08 ± 0.17
60. COc1cccc(NC(=O)N2CC(=O)N3[C@H](CO)[C@@H](c4ccc(C5=CCCCC5)cc4)[C@H]3C2)c1  1.08 ± 0.024
61. C/C=C/c1ccccc1[C@@H]1[C@@H](CO)N(C(C)=O)[C@H]1C#N  1.09 ± 0.09
62. O=S(=O)(c1cccc(F)c1)N1CC[C@@H]2[C@@H](CO)Nc3ccc(Br)cc3[C@@H]21  1.094 ± 0.0066
63. Cc1noc(C)c1C(=O)N(C)C[C@H]1OCc2ccccc2-c2ccccc2C(=O)N([C@H](C)CO)C[C@@H]1C  1.09 ± 0.06
64. COc1ccc(-c2ccc([C@H]3[C@@H](C#N)N(C(=O)NC(C)C)[C@@H]3CO)cc2)cc1  1.1 ± 0.052
65. O=C(c1ccccn1)N1CC2(C1)[C@@H](c1ccccc1)[C@@H](CO)N2Cc1ccc(F)cc1  1.11 ± 0.076
66. CN(C)CC(=O)N1[C@@H](CO)[C@@H](c2ccccc2)C12CN(Cc1cccnc1)C2  1.11 ± 0.043
67. N#C[C@H]1[C@@H](c2ccccc2C2=CCCC2)[C@@H](CO)N1C(=O)Cc1ccncc1  1.13 ± 0.18
68. CNC[C@@H]1Oc2ccc(NC(=O)NC3CCCCC3)cc2CC(=O)N([C@@H](C)CO)C[C@@H]1C  1.13 ± 0.14
69. COC(=O)C[C@@H]1CC[C@@H]2[C@H](COC[C@H](O)CN2S(=O)(=O)c2cn(C)cn2)O1  1.13 ± 0.025
70. CCCC(=O)N1CC[C@@]2(CC1)CN[C@@H](CO)c1[nH]c3cc(OC)ccc3c21  1.14 ± 0.095
71. C[C@@H]1CCCCO[C@@H](CN(C)S(C)(=O)=O)[C@H](C)CN([C@H](C)CO)C(=O)c2cc(NC(=O)NC3CCCCC3)ccc2O1  1.14 ± 0.091
72. O=C(C[C@H]1CC[C@@H](NC(=O)C2CCOCC2)[C@@H](CO)O1)NCC1CCCCC1  1.15 ± 0.1
73. COc1ccc(-c2ccccc2[C@@H]2[C@@H](CO)N(C(=O)C3CCC3)[C@H]2C#N)cc1  1.17 ± 0.15
